The other results are listed elsewhere or left out.

The assay has as its target T1, OsWOX13 (Oryza sativa, UniProt Q5QMM3 1-267).
T1 sequence: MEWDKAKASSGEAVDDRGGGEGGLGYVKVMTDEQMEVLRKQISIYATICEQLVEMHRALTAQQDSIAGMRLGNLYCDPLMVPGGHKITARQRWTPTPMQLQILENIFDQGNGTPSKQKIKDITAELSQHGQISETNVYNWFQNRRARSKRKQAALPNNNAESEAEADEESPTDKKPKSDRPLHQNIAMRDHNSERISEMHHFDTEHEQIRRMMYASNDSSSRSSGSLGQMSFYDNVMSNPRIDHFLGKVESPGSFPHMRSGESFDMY
In words: protein-binding microarray (RPBM); PBS, 2% BSA, 51.3 ng/ul salmon testes DNA, 50 uM zinc acetate, 200 nM TF, 25 C, 1 h; high values mean tight binding. The following applies: protein: recombinant; tags: N-terminal polyhistidine and DsRed monomer fusion (pET32a); label: CyDye5-dUTP incorporated in the synthesized complementary strand; 3' TTTTT single-stranded linker to array surface; dsDNA, one strand shown. The procedure, abridged:
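In PBS with 2% BSA, salmon testes DNA and 50 µM zinc acetate, 200 nM protein was incubated on a custom Agilent array at 25 °C for 1 h and then washed off. The array had been made double-stranded by primer extension with Cy5-dUTP and blocked with 2% BSA. The proteins were transcription factors fused N-terminally to polyhistidine and DsRed, expressed in E. coli BL21-CodonPlus and purified on Ni–NTA. The binding signal is per-feature fluorescence intensity (arbitrary units) from an Axon 4000B scanner.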
Turning to “GTTGACTGTTGACGAAGATCAGTCAATCTGTGCAGGTTGCCGGAGTCACCTAGTGCAG”, the binding signal was 16700 fluorescence intensity (a.u.). Turning to “AGGGCTTAATTGTGAAAACTACCCAAACATGGGCCTCGTACGGAGTCACCTAGTGCAG”, the binding signal is 17300 fluorescence intensity (a.u.).

As for “TATTTAATCATTAGCCTATGAATACATGCCATCAGAAATCCGGAGTCACCTAGTGCAG”, the binding signal was 4300 fluorescence intensity (a.u.).

As for “AAATAATTAATTTGGAGAATTTGTTTGGACGATTTGAAACCGGAGTCACCTAGTGCAG”, the binding signal is 37000 fluorescence intensity (a.u.).

For the sequence “TTAAACTAATTGTGGGAAGAAATAATATTTCACATCAGTGCGGAGTCACCTAGTGCAG”, the binding signal is 24700 fluorescence intensity (a.u.). For “CTGGAAATTAAATAATGTGTACGTTCTCCCTCAATTTGTGCGGAGTCACCTAGTGCAG”, the binding signal is 6980 fluorescence intensity (a.u.). For the sequence “AACTATTTTGAAGTTAATTGCAATATGTGATGAACTGATGCGGAGTCACCTAGTGCAG”, the binding signal is 7050 fluorescence intensity (a.u.). Regarding “ACCATCATCTATTACCTAATCTATATATAGCAGCACATACCGGAGTCACCTAGTGCAG”, the binding signal is 4170 fluorescence intensity (a.u.).

Turning to “ATTAACATAATAGCACATTAGCTCAATTTATCTATATGTTCGGAGTCACCTAGTGCAG”, the binding signal is 8240 fluorescence intensity (a.u.). Turning to “TCGGAAATTGAGTTCGTTCCTGGTTCTCACACTGCTCAAACGGAGTCACCTAGTGCAG”, the binding signal was 3220 fluorescence intensity (a.u.). In the case of “TATAAACTGCGAGTTAGCACATCACTGACAACTTGGTCCCCGGAGTCACCTAGTGCAG”, the binding signal was 5240 fluorescence intensity (a.u.).

Regarding “AGGCTCTGTGACTGATGATGATCGAGAATTTCTCATGTACCGGAGTCACCTAGTGCAG”, the binding signal was 5630 fluorescence intensity (a.u.). For the sequence “TGCTAATTGGGGCTATTTGCTGTGGGCCCCACCGATTCCCCGGAGTCACCTAGTGCAG”, the binding signal was 35600 fluorescence intensity (a.u.). With “AACGCAAACTTAGTTATTGGTAGTGACTGCCAAAACATGCCGGAGTCACCTAGTGCAG”, the binding signal is 4030 fluorescence intensity (a.u.). As for “CTTCCTTGATGGATCTTAGCAGTGTATAAAGTACAGCTACCGGAGTCACCTAGTGCAG”, the binding signal was 4730 fluorescence intensity (a.u.). In the case of “TGTGTCATAATTAGCAGTTACTTCTTGGCTACTCCTGTTACGGAGTCACCTAGTGCAG”, the binding signal is 11200 fluorescence intensity (a.u.). In the case of “ACACTAATTTAGAGTATTAAATATAGACTACTTACAAAACCGGAGTCACCTAGTGCAG” it was 10700 fluorescence intensity (a.u.); in that of “TCGAATTTGATCAGTAGCTTAATTATACTTTAGTACTACCCGGAGTCACCTAGTGCAG”, 10600 fluorescence intensity (a.u.); in that of “TCACAAGATAGATTAATATGAAAATATCACTCAACAAACACGGAGTCACCTAGTGCAG”, 6970 fluorescence intensity (a.u.). As to “CATATACAATCATATAGTTGATTTTGAAAGTTATATTATTCGGAGTCACCTAGTGCAG”, the binding signal is 6510 fluorescence intensity (a.u.). As for “CCAGCCAATCACGAGCGGAAGCCGGCACCGTCCCCTTTTCCGGAGTCACCTAGTGCAG”, the binding signal was 16000 fluorescence intensity (a.u.).

On to “TTCTTTGTTTGGTGCATGATTAATTAAGTATATGCTAGTTCGGAGTCACCTAGTGCAG”, for which the binding signal was 8370 fluorescence intensity (a.u.). For “CACATAATTTTATGGACTAATCTGCAAAATTTCTTCCACACGGAGTCACCTAGTGCAG”, the binding signal was 15800 fluorescence intensity (a.u.). “CTAGCAATCACCATGTTACTGCTAGCTCTTGTTACTGCATCGGAGTCACCTAGTGCAG”: the binding signal is 11700 fluorescence intensity (a.u.). To “GCTTGTGATAGAATCAATTTACCCTTGCATTTATGGCTAACGGAGTCACCTAGTGCAG” belongs 13600 fluorescence intensity (a.u.). “CACACCTGTCACCGTCCCATCCCCACCTCGGCCACAGAGACGGAGTCACCTAGTGCAG”: the binding signal was 3160 fluorescence intensity (a.u.). Consider “TCTTAGATTTAACATTTAACTATTTATCACCAATGTATCACGGAGTCACCTAGTGCAG”, for which the binding signal was 9580 fluorescence intensity (a.u.). Regarding “TTTTAATTAAACCATATAACAATAATAATATTAAAATAGACGGAGTCACCTAGTGCAG”, the binding signal was 9160 fluorescence intensity (a.u.).

On to “ATGTCCTTGCTAAACGAGTCTAATTAGATGACAAGAAGAGCGGAGTCACCTAGTGCAG”, for which the binding signal was 5560 fluorescence intensity (a.u.).

“AGAATAATTGCACTCCTAGAAGATTAAAGACAGATTAGCACGGAGTCACCTAGTGCAG”: the binding signal was 11900 fluorescence intensity (a.u.).

For “GTTTAAATGTGATGATTATTAGTGGATGATGATGTGGCATCGGAGTCACCTAGTGCAG”, the binding signal was 34400 fluorescence intensity (a.u.). To “CCTGTTACAATTTTAATCAGTTCTTTATTATTCCTCTCCACGGAGTCACCTAGTGCAG” belongs 4780 fluorescence intensity (a.u.); to “TATTAATTGGGGTGATTCATGACAACGATGAGATATTAATCGGAGTCACCTAGTGCAG”, 10500 fluorescence intensity (a.u.); to “CAATTAATCATGTGTTAATGGCTCACCTCGTTTTACGTATCGGAGTCACCTAGTGCAG”, 19700 fluorescence intensity (a.u.). For the sequence “GAGAAATGGTAATTTAGCATGCTTATATATTGAGGTTTAGCGGAGTCACCTAGTGCAG”, the binding signal was 8510 fluorescence intensity (a.u.). In the case of “TAGGAAACGTAATTTTGTTAAGAAAATGTTTTGGCTTCTCCGGAGTCACCTAGTGCAG” it was 3600 fluorescence intensity (a.u.). With “GGGAATTAAATGGATCCAGTACAAAGTTCATTTAAACGAGCGGAGTCACCTAGTGCAG”, the binding signal is 8970 fluorescence intensity (a.u.). Consider “TTTAAATGAAAGATGATTGATGGGGCAATTAGTACTCTAGCGGAGTCACCTAGTGCAG”, for which the binding signal is 43400 fluorescence intensity (a.u.). In the case of “CATGCTTATTGTCACTCAATTTACCTACCAAGATATAGGTCGGAGTCACCTAGTGCAG”, the binding signal is 5410 fluorescence intensity (a.u.). “AGTGTTGTACATGATTACTATAAATTGCAAAATATAACATCGGAGTCACCTAGTGCAG”: the binding signal is 4880 fluorescence intensity (a.u.). Take “AACCTAAACTAATTACCCACAAACGGCCTCACATAGGTTTCGGAGTCACCTAGTGCAG”: the binding signal was 7980 fluorescence intensity (a.u.). Turning to “TTGATTTTGCTAAATTACCAATTTCAAATAGACATTGCACCGGAGTCACCTAGTGCAG”, the binding signal was 49800 fluorescence intensity (a.u.).

Values taken from article PMC7819943, “Rice protein-binding microarrays: a tool to detect cis-acting elements near promoter regions in rice”.
